From the RNAGym collection of RNA variant scans (doi:10.7554/elife.90254)
The source gives no read counts; variants with many changes may rest on few reads.

B1: LINE1-full (parent)
chain: UACGUAGGUGGUUUUCCCCUGAUAGUGCUAAGGGGGCCUGGAAGUUUGGACUGGGCAGAGCUCAACACAGCGUGGCAAAGUGGCUGUGGCUAGACUGCCUCUCUGGAUUCCUCGUCACUCAGCAGGGCAUCUCUGAGAGAAAUGCC

Variants of: B1
Assay: self-cleavage, relative activity (ratio to wild type); higher = more cleavage; in vitro, sequencing; the parent is a self-cleaving ribozyme
In the case of UACGAAGGUGGUUUUCCCCUGAUAGUGCUAAGGGGGCCUGGAAGUUUGGACUGGGCAGAGCCCAACACAGCGUGGCAAAGUGGCUGAGGCUAGACUGCCUCUCUGGAUUCCUCGUCACUCAGCAGGGCACCUCUGAGAGAAAUGCC [U5A U62C U87A U130C], the self-cleavage is reported as 0. With UACGAAGGUGGUUUUCCCCUGAUAGUGCCAAGGGGGCCUGGAAGUUUGGACUGGGCAGAGCUCAACACAGCGUGGCAAAGUGGCUGUGGCUAGACUGCCUCUCUGGAUUCCACGUCACUCAGCAGGGCAUCUCUGAGAGGAAUGCC [U5A U29C U112A A140G] the self-cleavage was 0.71. In the case of UACGAAGGUGGUUUUCCCCCGAUAGUGCUAAGGGGGCCUGGAAGUUUGGACUGGGCAGAGCUCAACACAGCGUGGCAAAGUGGCUGUGGCUAGGCUGCCUCUCUGGAUUCCUCGUCACUCAGCAGGGCAUCUCUGAGGGAAAUGCC [U5A U20C A94G A138G], the self-cleavage is reported as 0.41. For UACGAAGGUGGUUUUCCCCCGAUAGUGCUAAGGGGGCCUGGAAGUUUGGACUGGGCAGAGCUCAACACAGCGUGGCAAAGUGGCUGUGGCUAGACUGCCUCUCUGGAUUCCUUGUCACUCAGCAGGGCAUCUCUGAGAGACAUGCC [U5A U20C C113U A141C], the self-cleavage was 0.82. Variant UACGCGGGUGGUUUUCCCCUGAUAGUGCUAAGGGGGCCUGGAAGUUUGGACUGGGCAGAGCUCAACACAGCGUGGCAAAGUGGCUGUGGCUAGACUGCCUCUCUGGAUUCCUCGUCACUCAGCAGGGCAUCUCUGAGAGAAAUACC [U5C A6G G144A] has a self-cleavage of 0.52. For UACGAAGGUGGUCUUCCCCUGAUAGUGCUAAGGGGGCCUGGAAGUUUGGACUGGGCAGAGCUCAACACUGCGUGGCAAAGUGGCUGUGGCUAGACUGCCUCUCUGGAUUCCUCGUAACUCAGCAGGGCAUCUCUGAGAGAAAUGCC [U5A U13C A69U C116A], the self-cleavage was 0.15. Variant UACGAAGGUGGUUUUCCCCUGAUAGUGCUAAGGGGGCCUGGAAGUUUGGACUGGGCAGAGCUCAACACAGCGUGGCAAAGGGGCUGUGGCUAGACUGCCUCUCUGGAUUCCUCGUCACUCAGCAGGGCAUCUCUGAGAGAGAUGCC [U5A U81G A141G] has a self-cleavage of 0.88. Variant UACGAAGGUGGUUUUCCCCUGAUAGUGCUAAGGGGGCCUGGAAGUUUGGACUGGGCAGAGCUCAACACAGCGUAGCAAAGUGGCUGUGGCUAGACUGCCUCUCUGGAUUCCUCGUCACUCAGCAGGGCAUCUCAGGGAGAAAUGCC [U5A G74A U134A A136G] has a self-cleavage of 1.26. With UACGAAGGUGGUUUUCCCCUGAUAGUGCUAAGGGGGCCUGGAAGUUUGGACUGGGCAGAGCUCAACACAGCGUGGCAAAGUGGCAGUGGCUAGACUGCCUCUCUGGAUUCCUCGUCACUCAGCAGGGCAUCUCUGAGAGAAAAGCC [U5A U85A U143A] the self-cleavage was 0.12. With UACGCAGGUGGUUUUCCCCUGGUAGUGCUAAGGGGGCCUGGAAGUUUGGACUGGGCAGAGCACAACACAGCGUGGCAAAGUGGCUGUGGCUAGACUGCCUCUCUGGAUUCCUCGUCACUCAGCAGGGCAUCUCUGAGGGAAAUGCC [U5C A22G U62A A138G] the self-cleavage was 0. With UACGCGGGUGGUUUUCCCCUGAUAGUGCUAAGGGGGCCUGGAAGUUUGGACAGGGCAGAGCUCAACACAGCGCGGCAAAGUGGCUGUGGCUAGACUGCCUCUCUGGAUUCCUCGUCACUCAGCAGGGCAUCUCUGAGAGAAAUGCC [U5C A6G U52A U73C] the self-cleavage was 1.67. UACGCGGGUGGUUUUCCCCUGAUAGUGCUAAGGGGGCCUGGGAGUUUGGACUGGGCAGAGCUCAACACAGCGUGGCAAAGUGGCUGUGGCUAGACUGCCUCUCUGGAUUCCUCGUCACUCAGCAGGGCAUCUCUGAGAGAAAUGCC [U5C A6G A42G] showed a self-cleavage of 0. Variant UACGCUGGUGGAUUUCCCCUGAUAGUGCUAAGGGGGCCUGGAAGUUUGGACUGAGCAGAGCUCAACACAGCGUGGCAAAGUGGCUGAGGCUAGACUGCCUCUCUGGAUUCCUCGUCACUCAGCAGGGCAUCUCUGAUAGAAAUGCC [U5C A6U U12A G54A U87A G137U] has a self-cleavage of 0.36. For UACGCAGGUGGUUUUCCCCUGGUAGUGCUAAGGGGGCCUGGAAGUUUGGACUGGGCAGAGCUCAACACAGCGUGGCAAAGUGGCUGCGGCUAGACUGCCUCUCUGGAUUCCUCGUCACUCAGCAGGGCAUCUCUGAGAGAAAUGCC [U5C A22G U87C], the self-cleavage was 0. For UACGCAGGUGGUUUUCCCCUGGUAGUGCUAAGGGGGCCUGGAAGUUUGGACUGGGCAGAGCCCAGCACAGCGUGGCAAAGUGGCUGUGGCUAGACUGCCUCUCAGGAUUCCUCGUCACUCAGCAGGGCAUCUCUGAGAGAAAUGCC [U5C A22G U62C A65G U104A], the self-cleavage was 0.37. Variant UACGAAGGUGGUUUACCCCUGAUAGUGCUAAGGGGGCCUGGAAGUUUGGACUGGGCAGAGCCCAACACAGCGAGGCAAAGUGGCUGUGGCUAGACUACCUCUCUGGAUUCCUCGUCACUCAGCAGGGCAUCUCUGAGAGAAAUGCC [U5A U15A U62C U73A G97A] has a self-cleavage of 0.04. With UACGAAGGCGGUUUUCCCCUGAUAGUGCUUAGGGGGCCUGGAAGUUUGGACUGGGCAGAGCUCAACACAGCGUGGCAAAGUGGCUGUGGCUAGACUGCCUCUCUGGAUUCCUCGUCACUCAGCAGGGCACCUCUGAGAGGAAUGCC [U5A U9C A30U U130C A140G] the self-cleavage was 0.85. Variant UACGAAGGUGGUUUUCCCCUGAUAGUGCUAAGGGGGCCUGGAAGUUUGGACUGGGCAGAGCUCAACACAGCGUGGCAAAGUGGCAGUGGCUAGACUGCCUCUCUGGAUUCCUCGUCACUCAGCAGGGCGUCUCUGAGAGAAAUGCC [U5A U85A A129G] has a self-cleavage of 0. UACGCAGGUGGUUUUCCCCUGUUAGUGCUAAGGGGGCCUGGAAGUUUGGACUGGGCAGAGCUCAACACAGCGUGGCAAAGUGGCUGUGGCUAGACUGCCUCUCUGGAUUCCUCGUCACUCAGCAGGGCAUCUCUGAGAGAAACGCC [U5C A22U U143C] showed a self-cleavage of 1.33. With UACGAAGGUGGCUUCCCCCUGAUAGUGCUAAGGGGGCCUGGAAGUUUGGACUGGGCAGAGCUCAACGCAGCGUGGCAAAGUGGCUGUGGCUAGACUGCCUCCCUGGAUUCCUCGUCACUCAGCAGGGCAUCUCUGAGAGAAAAGCC [U5A U12C U15C A67G U102C U143A] the self-cleavage was 0.38. UACGCUGGCGGUUUUCCCCUGAUAGUGCUAAGGGGGCCUGGAAGUUUGGACUGGGCAGAGCUCAACACAGCGUGGCAGAGUGGCUGUGGCUAGACUGCCUCUCUGGAUUCCUCGUCACUCAGCAGGGCAUCUCUGAGAGAAAUGCC [U5C A6U U9C A78G] gave a self-cleavage of 0.89. In the case of UACGAAGGUGGUCUUCCCCUGAUAGUGCUAAGGGGGCCUGGAAGUUUGGACUGGGCAGAGCUCAACACAGCGUGGCAAAGUGGCUGUGGCUAGACUGCCUUUCUGGAUUCCUCGUCACCCAGCAGGGCAUCUCUGAGAGAGAUGCC [U5A U13C C101U U119C A141G], the self-cleavage is reported as 1.08. UACGAAGGUGGUUUUCCCCUGAUAGUGCCAAGGGGGCCUGGAGGUUUGGACUGGGCAGAGCUCAACACAGCGUGGCAAAGUGGCUGUGGCUAGACUGCCUCUCUGGAUUCCUCGUCACUCAGCAGGGCAUCUCUGAGAGAAAUGCC [U5A U29C A43G] showed a self-cleavage of 0.85. Variant UACGCUGGUGGUUUUCCCCUGAUAGUGCUAAGGGGGCCUGGAAGUUUGGACUGGGCAGAGCUCAACACAGCGUGGCAAAGUGGCUGUGGCUAGACUGCCUCUCUGGAUUCCUCGUCACCCAGCAGGGCAUCUCUGAGAGAAAUGCC [U5C A6U U119C] has a self-cleavage of 1.19. In the case of UACGAAGGUGGAUUUCCCCUGAUAGUGCUAAGGGGGCCUGGAAGUUUGGACUGGGCAGAGCUCAACACAGCGUGGCAAAGUGGCUGUGGCUAGACUGCCUCUCUGGAUUCCUCGUCACUCAGCAGGGCAUCUCUGGGAGAAAUGCC [U5A U12A A136G], the self-cleavage is reported as 1.13. Work on UACGAAGGUGGGUUUCCCCUGAUAGUGCUAAGGGGGCCUGGAAGUUUGGACUGGGCAGAGCUCAACACAGCGUGGCAAAGUGGCUGUGGCUAGGCUGCCUCUCUUGAUUCCUCGUCACUCAGCAGGGCAUCUCUGAGAGAAAUGCC [U5A U12G A94G G105U] yielded a self-cleavage of 0.3. With UACGAAGGUGGGUCUCCCCUGAUAGUGCUAAGGGGGCCUGGAAGAUUGGACUGGGCAGAGCUCAACACAGCGUGGCAAAGUGGCUGUGGCUAGACUGCCUCUCUGGAUUCCCCGUCACUCAGCAGGGCAUCUCUGAGAGAAAUGCC [U5A U12G U14C U45A U112C] the self-cleavage was 0.88. Work on UACGAAGGUGGUCUUCCCCUGAUAGUGCUAAGGGGGCCUGGAAGUUUGGACUGGGCAGAGCUCAACACAGCGUGGCAAAGUGGCUGUGGCUAGACUGCCUCUCUGGAUUCCUCGUCACUCAGCUGGGCAUCUCUGAGAGAAAUGCC [U5A U13C A124U] yielded a self-cleavage of 0.95. With UACGCAGGUGGUUUUCCCCUGUUAGUGCUAAGGGGGCCUGGAAGUUUGGACUGGGCAGAGCUCAACACGGCGUGGGAAAGUGGCUGUGGCUAGACUGCCUCUCUGGAUUCCUCGUCACUCAGCAGGGCACCUCUGAGAGAAAUGCC [U5C A22U A69G C76G U130C] the self-cleavage was 0.87. Work on UACGAAGGUGGUUUUCCCCAGAUAGUGCUAAGGGGGCCUGGAAGAUUGGACUGGGCAGAGCUCAACACAGCGUGGCAAAGUGGCUGUGGCUAGACUGCCUCUCUGGAUUCCUCGUCACUCAGCAGGGCAUCUCUGAGAGAAAUGCC [U5A U20A U45A] yielded a self-cleavage of 0.66. UACGAAGGUGGUUUUCCCCUGAUAGUGCUAAGGGGGCCUGGAAGUUUGGACUGGGCAGAGCUCAACACAGCGUGGCAAAGUGGCUGUGGCCAGACUGCCUCUCUGGAUUCCUCGUCACUCAGCAGGGCAUCUCUGAGAGAGAUGCC [U5A U91C A141G] showed a self-cleavage of 0.74. Variant UACGAAGGUGGUCUUCCCCUGAUAGUGCUAAGGGGGUCUGGAAGUUUGGACUGGGCAGAGCUCAACUCAGCAUGGCAAAGUGGCUGUGGCUAGACUGCCUCUCUGGAUUCCUCGUCACCCAGCAGGGCAUCUCUGAGAGAAAUGCC [U5A U13C C37U A67U G72A U119C] has a self-cleavage of 0.08. UACGAAGGUGGUUUUCCCCUGACGGUGCUAAGGGGGCCUGGAAGUUUGGACAGGGCAGAGCUCAACACAGCGUGGCAAAGUGGCUGAGGCUAGACUGCCUCUUUGGAUUCCUCGUCACUCAGCAGGGCAUCUCUGAGAGAAAUGCC [U5A U23C A24G U52A U87A C103U] gave a self-cleavage of 0.21. For UACGAAGGUGGUUUCCCCCUGAUAGUGCUAAGGGGGCCUGGAAGUUUGGACCGGGCAGAGCUCAACACAGCGUGGCAAAGUGGCUGAGGCUAGACUGCCUCUCUGGAUUCCUCGUCACUCAGCUGGGCAUCUCUGAGAGAAAUGCC [U5A U15C U52C U87A A124U], the self-cleavage was 0.14. UACGCUGGUGGUUUUCCCCUGAUAGUGCUAAGGGGGCCUGGAAGUUUGGACUGGGCAGAGCUCAACACAGCGUGGCAAAGUGGCUGAGGCUAGACUGCCUCUCUGGAUUCCUCGUCACUCAGCAGGGCAUCUCCGAGAGAAAUGCC [U5C A6U U87A U134C] gave a self-cleavage of 0.69. In the case of UACGAAGGUGGCUUUCCCCUGAUAGUGCUAAGGGGGCCCGGAAGUUUGGACUGGGCAGAGCUCAACACAGCGUGGCAAAGUGGCUGUGGCUAGACUGCCUCUCUGGAUUCCUCGUCACUCAGCAGGGCAUCUCUGAGAGAAAUGCC [U5A U12C U39C], the self-cleavage is reported as 0.74. For UACGAAGGCGGUUUUCCCCUGAUAGUGAUAAGGGGGCCUGGAAGUUUGGACUGGGCAGAGCUCAACACAGCGUGGCAAAGUGGCUGUGGCUAGACUGCCUCUCUGGAUUCCUCGUCACUCAGCAGGGCAUCACUGAGAGAAAUGCC [U5A U9C C28A U132A], the self-cleavage was 0.91. For UACGCGGGUGGUUUUCCCCUGAUAGUGCUAAGGGGGCCUGGAAGUUUGGAGUGGGCAGAGCUCAACACAGCGUGGCAAAGUGGCUGUGGCUAGACUGCCUCUCUGGAUUCCUCGUCACUCAGCAGGGCAUCUCUGAGAGAAAUGCC [U5C A6G C51G], the self-cleavage was 0.89. With UACGCAGGUGGUUUUCCCCUGUUAGUGCUAAGGGGGCCUGGAAGUUUGGACUGGGCAGAGCUCAACACAGCGUGGCAAAGUGGCCGUGGCUAGACUGCCUCUCUGGAUUCCUCGUCACUCAGCAGGGCAUCUCUGAGAGAAAUGCU [U5C A22U U85C C146U] the self-cleavage was 0.51.
